Test results: PubChem BioAssay AID686971 (National Center for Advancing Translational Sciences (NCATS), 2013)
Hit rate of the full screen: of about 360,000 compounds, about 7,500 (2.1%) were called active. This list was built around the results that the source calls inconclusive (neither active nor inactive); the mix of calls is not that of the screen. The call rests on the fitted dose curve; in most records, active means well fitted cell-killing curve with a large enough effect; inconclusive means small, poorly fitted or top-dose-only effect, or effect the other way, or another doubt; inactive means no such curve, though single readings can be large or run the other way. No potency is given beside an inconclusive call; the fits are too rough.

Experiment: qHTS for induction of synthetic lethality in tumor cells producing 2HG: qHTS for the HT-1080-IDH1KD cell line;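 on activity, negative = toxicity: 0% = DMSO wells and -100% = cell-free medium wells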
Settings: HT-1080 IDH1 knockdown viability, ATP luminescence, 48 h; activity, negative = toxicity: at 46.1 µM (top of the series) unless noted
Procedure, shortened: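 IDH1KD HT-1080 cells, 750/well, RPMI + 5% FBS; compound pinned after 2 h settling; 48 h, 37 °C; CellTiter-Glo luminescence; % activity normalised to DMSO and no-cell wells; curves fitted, classed by r2 and efficacy.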
Potency means the concentration at half of the fitted maximal effect; tags describe the fitted curve by direction and shape.

| SMILES | Potency | activity, negative = toxicity |
| --- | --- | --- |
| O=C(Nc1ccccc1C(=O)O)c1ccc(NC(=O)c2ccc(Br)o2)cc1 | inconclusive [cytotoxic, single point] | – |
| O=C(NCCCN1CCOCC1)c1cc2c([nH]c3ccccc32)c(-c2cccc(Br)c2)n1 | inconclusive [cytotoxic, single point] | – |
| O=[N+]([O-])c1cccc(S(=O)(=O)Nc2nc3ccccc3nc2Nc2cccc(S(=O)(=O)N3CCCCC3)c2)c1 | inconclusive [cytotoxic, full curve] | – |
| COc1ccc(Cc2nc(C(=O)Nc3ccc(Cl)cc3)cs2)cc1 | inconclusive [cytotoxic, single point] | – |
| CCCc1nc2ccccc2c(C(=O)OCc2nnc(-c3cc(OC)c(OC)c(OC)c3)o2)c1CC | inconclusive [cytotoxic, single point] | – |
| COCCCN=C1NN=C(c2cc(C)n(Cc3ccccc3Cl)c2C)CS1 | active: 7.31 µM | – |
| CC1(CC(=O)N/N=C/c2cc(Br)c(O)cc2O)OCCO1 | inconclusive [cytotoxic, partial curve] | – |
| CCn1ncc(/C=N\NC(=O)c2ccc3c(c2)c(C)c(C)n3Cc2ccccc2)c1C | inconclusive [cytotoxic, single point] | – |
| C(=N\N=C\c1ccccn1)/c1ccccn1 | – | inactive: 18.5% |
| Cc1ccc(/C=N/NC(=O)CSc2nnc(-c3ccc(Cl)cc3)n2-c2ccc(Cl)cc2)o1 | inconclusive [cytotoxic, single point] | – |
| Cc1cccc(NNC(=O)C(=O)NNc2cccc(C)c2)c1 | active: 5.17 µM | – |
| CCOC(=O)c1ccc(N=c2scc(C)n2CC)cc1 | inconclusive [cytotoxic, single point] | – |
| NC(=S)N/N=C/c1ccc(-c2cc(Cl)ccc2Cl)o1 | inconclusive [cytotoxic, single point] | – |
| CC(=O)Nc1ccc(S(=O)(=O)N2CCN(c3nc(NC4CCCC4)c4ccccc4n3)CC2)cc1 | inconclusive [cytotoxic, single point] | – |
| CC(=O)NCCc1ccc(S(=O)(=O)Nc2ccc(NC(=O)c3ccc(F)cc3)cc2)cc1 | inconclusive [cytotoxic, single point] | – |
| c1csc(-c2nc(-c3ccncc3)no2)c1 | – | inconclusive: -0.311% [cytotoxic] |
| CNc1c(NS(=O)(=O)c2ccc(F)c(Cl)c2)c(=O)oc2ccccc12 | – | inconclusive: -30.7% [cytotoxic] |
| COc1cccc(CN(C)C(=O)c2sccc2-c2ccccc2)c1OC | inconclusive [cytotoxic, single point] | – |
| Cc1ccc(C(=O)N2CCN(Cc3ccc4c(c3)OCO4)CC2)c(Cl)c1 | active: 16.4 µM | – |
| Cc1nc(N2CCC(C)CC2)c2c(C)c(C(=O)Nc3cccc(C(F)(F)F)c3)sc2n1 | inconclusive [cytotoxic, single point] | – |
| O=C(O)c1ccc(-c2ccc(/C=C3\NC(=O)N(Cc4ccc(Cl)cc4)C3=O)o2)cc1Cl | – | inconclusive: -15% [cytotoxic] |
| Cc1csc2sc(-c3ccnc(SCC(=O)NCc4ccccc4)n3)c(C)c12 | active: 2.31 µM | – |
| CCc1ccc2[nH]c(=O)c(CN(Cc3ccccc3OC)Cc3nnnn3Cc3ccco3)cc2c1 | inconclusive [cytotoxic, partial curve] | – |

| SMILES | Potency | activity, negative = toxicity |
| --- | --- | --- |
| O=C1C(=O)N(CCCN2CCOCC2)C(c2ccc([N+](=O)[O-])cc2)/C1=C(/O)c1ccc2c(c1)OCO2 (centres undefined) | – | inactive: 8.1% |
| O=C(COC(=O)c1cnccn1)c1ccc(Cl)cc1 | – | inactive: 9.76% |
| O=C(/C=C/c1ccc(Cl)cc1Cl)Nc1ccc(CN2CCOCC2)cc1 | inconclusive [cytotoxic, single point] | – |
| Clc1ccc(COn2c(-c3ccccc3)nc3ccccc32)cc1 | – | inactive: 0.0487% |
| N#C/C(=N\Nc1ccc(S(=O)(=O)N2CCCCC2)cc1)C(N)=S | inconclusive [cytotoxic, single point] | – |
| Cc1ccc(-n2nc3c(N4CCC(C(=O)NCc5ccccc5C)CC4)nnc(C)c3c2C)cc1 | active: 8.2 µM | – |
| Cc1nc(CSc2nsc(C)c2C#N)cs1 | inconclusive [rising, single point] | – |
| COc1ccc(CNC(=O)N2[C@H]3CC[C@@H]2C=C(c2ccc(F)cc2OCc2ccccc2)C3)cc1OC | – | inactive: -1.96% |
| CC1(C)CC(NC(=O)c2sc3cc(Cl)ccc3c2Cl)CC(C)(C)N1 | active: 11.6 µM | – |
| Cc1cc(C)c(OCC(=O)OCC(=O)NC2CCCCCCC2)c(C)c1 | – | inactive: 0.66% |
| CC(C)Oc1ccc(F)cc1-c1cc(C(=O)NCc2ccc(C(F)(F)F)cc2)[nH]n1 | inconclusive [cytotoxic, partial curve] | – |
| CC1CCC/C=C/C(=O)c2c(O)cc(O)cc2CC(=O)O1 (centres undefined) | active: 20.6 µM | – |
| CCCN(CCC)S(=O)(=O)c1ccc(C(=O)Nc2nnc(-c3cc(OC)cc(OC)c3)o2)cc1 | inconclusive [cytotoxic, full curve, poor fit] | – |
| CC1(C)Oc2ccc3ccc(=O)oc3c2/C(=C/N)C1=O | – | inactive: -14.6% |
| COc1ccc(C2NC(=O)Cc3cc(OC)c(OC)cc32)cc1OC (centres undefined) | – | inactive: -1.91% |
| CCCCc1c(-c2ccccc2OC)ncn1CCc1cccc(Cl)c1 | inconclusive [cytotoxic, single point] | – |
| Cc1ccc(NS(=O)(=O)c2ccc(Cl)c(C(=O)O)c2)cc1S(=O)(=O)N1CCOCC1 | – | inactive: 12.7% |
| N=c1sccn1CC(=O)Nc1cc(Cl)ccc1Oc1ccccc1 | inconclusive [cytotoxic, partial curve] | – |
| CC1CCN(C(=O)c2ccc3c(c2NCCO)C(=O)c2ccccc2C3=O)CC1 | inconclusive [cytotoxic, single point] | – |
| COC(=O)c1ccc(COc2ccccc2/C=N/NS(=O)(=O)c2ccc(C)cc2)cc1 | inconclusive [cytotoxic, single point] | – |
| CCOC(=O)C1=C(Cn2cnc3ccccc32)NC(=O)NC1c1ccc(Cl)cc1 (centres undefined) | inconclusive [cytotoxic, single point] | – |
| CSc1nsc(SC)c1NC(=O)Nc1ccccn1 | inconclusive [cytotoxic, single point] | – |
| CC(OC(=O)CN1C(=O)c2ccccc2C1=O)C(=O)NC1CCCCC1C (centres undefined) | – | inactive: -2.25% |

| SMILES | Potency | activity, negative = toxicity |
| --- | --- | --- |
| O=C1N=C(N2CCCC2)S/C1=C\c1cccc(Br)c1 | inconclusive [cytotoxic, single point] | – |
| Cc1ccc(C(=O)/C=C\NCc2ccccc2)cc1 | – | inactive: 3.72% |
| Cc1ccc(N2C(=O)CC(N(CCc3ccccc3)C(=S)Nc3ccc(N(C)C)cc3)C2=O)cc1 (centres undefined) | inconclusive [cytotoxic, partial curve] | – |
| O=C(CCl)N(Cc1ccccc1)c1ccccc1 | active: 16.4 µM | – |
| CCOc1nc2cnccc2n(CC(=O)Nc2c(F)c(F)cc(F)c2F)c1=O | – | inactive: 7.86% |
| COc1ccc(NC(=O)Cn2nnc(C(=O)NCc3ccc(C)cc3)c2N)cc1Cl | inconclusive [cytotoxic, partial curve] | – |
| CCCOc1ccc(/C(O)=C2\C(=O)C(=O)N(c3ccccn3)C2c2ccccc2F)cc1C (centres undefined) | – | inconclusive: -30.1% [cytotoxic] |
| COc1ccc(CCNC2CC(=O)N(CCc3ccccc3)C2=O)cc1OC (centres undefined) | – | inactive: 3.13% |
| Cc1ccc(C(=O)Nc2cc3ccccc3oc2=O)cc1 | – | inactive: -16.2% |
| COc1ccc(/C=N/NC(=O)c2[nH]c3ccc(Cl)cc3c2-c2ccccc2)c(C(=O)O)c1OC | inconclusive [cytotoxic, partial curve] | – |
| Cn1cccc1/C=C1\SC(=O)N(CC(=O)Nc2ccc(F)cc2)C1=O | inconclusive [cytotoxic, single point] | – |
| COc1cc(C2Nc3ccccc3NC3=C2C(=O)CC(C)(C)C3)cc(OC)c1OC (centres undefined) | – | inactive: -7.46% |
| Cc1nn(-c2ccccc2)c(Cl)c1C(=O)NCCCCNC(=O)c1c(C)nn(-c2ccccc2)c1Cl | – | inactive: 1.25% |
| CCc1nc2ccc(C(=O)NCCc3c[nH]c4ccccc34)cn2c1N(C)CCCc1ccccc1 | inconclusive [cytotoxic, single point] | – |
| CN(C)Cc1c[nH]c2nc[nH]c(=O)c12 | – | inactive: 9.39% |
| Cc1cc(SCC(=O)N/N=C/c2ccc(O)c(O)c2)nc2ccccc12 | inconclusive [cytotoxic, partial curve] | – |
| COC(=O)C1=C(C)NC(=O)NC1c1ccc(N2CCC(c3ccccc3)=N2)cc1 (centres undefined) | inconclusive [cytotoxic, single point] | – |
| Cc1ccc(NC(=O)CCCCCN2C(=O)[C@@H]3Cc4ccccc4CN3C2=O)c(C)c1 | – | inactive: 11.6% |
| CCN(CC)CC(O)CN(c1ccccc1)S(=O)(=O)c1ccc2ccccc2c1 (centres undefined) | inconclusive [cytotoxic, single point] | – |
| C(#CCN1CCCC1)CC(c1ccccc1)c1ccccc1 | inconclusive [cytotoxic, single point] | – |
| O=C(C[C@H]1C/C=C\C[C@H](NC(=O)OCC2c3ccccc3-c3ccccc32)C(=O)O[C@H](c2ccccc2)CNC1=O)N[C@H](CO)Cc1ccccc1 | active: 14.6 µM | – |
| CCN(CC)c1ccc(/C=C/c2ccc3ccc(OC)cc3[n+]2CC)cc1 | inconclusive [cytotoxic, partial curve] | – |
| Cc1ccc(F)c([C@H]2C3C=CCC(c4ccccc4)C3C(=O)N2Cc2ccccc2)c1 (some centres undefined) | inconclusive [cytotoxic, single point] | – |
